Test results: the supplement of paper PMC3334620
Whole data set: some 33,000 sequences, median “E-score (-0.5 to 0.5)” near -0.016, cut for the highest 2% near 0.31. The list shows a part of the results.

target: Cst6 (UniProt P40535); assay: PBM E-score (8-mer binding enrichment) (E-score (-0.5 to 0.5)); higher = stronger / more preferred TF binding; most listed sequences are background and not binding sites; details: protein concentration: 200 nM; construct: GST-DNA-binding domain
Summary of the method: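 Masliner-normalised scans of fluorescent anti-GST signal were the basis for scoring. That signal came from GST-tagged yeast transcription factors applied at about 100-200 nM to double-stranded universal all-10-mer Agilent arrays on fresh or once-stripped slides. Each ungapped eight-base word, pooled with its reverse complement, received an E-score from the Universal PBM Analysis Suite.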

Sequence	PBM E-score
GTGAGATA	0.129
GGTGTTTA	0.0743
CCGAGAGG	-0.254
GTTCGGGA	-0.0952
GAGCAAGA	-0.0552
CAGCCTCG	-0.0587
ATTCCGTG	0.121
ACTATCTA	0.0552
CAGAAGAG	0.0467
CCGTCGCG	-0.22
AAATTTGT	0.137
AGGAAGAT	-0.0159
GAGAAGAC	0.021
ATGGAAGG	-0.065
GATCCGTA	-0.0774
CCTTGAGC	0.00672
CTTCGATC	-0.0364
TGCACACA	-0.017
CACAACGG	-0.00695
CATGGCCG	-0.137
AAACAGGC	-0.0905
GGAGAGAA	-0.12
AAGAACAA	0.327
ATGGTACC	-0.256
GAACCTGC	-0.17

Sequence	PBM E-score
AAGCCGTC	0.082
ACTGTCAT	0.0752
AGATTTAC	0.176
ATGACTCA	0.309
CTTCGAAA	0.13
AAGTGAGG	-0.122
ACAGTCAT	-0.0182
AACAGTCA	-0.00564
ACCGCTCC	-0.165
AGTGGCAC	-0.115
CGGTAACC	-0.186
GTTCAAAC	0.214
ATGAAGAG	0.0318
TGGTAGAA	-0.0488
TAAAAGAA	0.171
CCCTACCG	-0.074
CATACTGC	-0.0994
CAGGCGGG	-0.333
CAAGAATA	0.187
ATCTACGC	0.136
ACCCAGAT	-0.16
ATAAGTCC	-0.125
GACGTGAC	0.394
CGGACGTC	0.252
CGCCATAA	0.134

Sequence	PBM E-score
GAGAACAC	0.0644
GAACCACA	-0.0143
TCGAAGCA	-0.0376
CCTGTTCC	-0.0903
CGTCGCAC	-0.00823
ACGGGATG	-0.202
CGGTACGC	-0.163
GGGCAGTA	-0.224
GGGTCACA	-0.176
GGAGCGAA	-0.0818
ATGGCATC	0.132
AGATTTCA	0.0869
TATTAAGA	0.0221
ATCTATTC	0.116
GTATTTGA	0.00135
AGCCTCTG	-0.334
GATCTAGA	-0.0241
ACATCCAT	0.0497
AACTAAGA	0.217
CCCAAAGA	-0.0301
CAGGTGTC	-0.00571
GAAAGCGA	-0.041
AACTGCTA	-0.0301
TACACGCA	-0.0207
TAAGCCAA	-0.0805

Sequence	PBM E-score
ACACAATA	0.183
GACAGTGA	0.13
TACGGACA	-0.00309
AGAATGTC	0.134
ATCTTGTA	0.0755
GATTACGC	0.329
ACCCGGGG	-0.233
TAGTGGGA	-0.299
CCGAGCCA	-0.157
TCAGGAAA	0.053
ATATTGGA	0.0379
AAGTGATC	0.0504
CTCGGTCA	0.0022
GCAAATGA	0.103
AATTTGCT	0.0623
CAAATGCA	-0.0341
TAGTATGA	0.273
CGAAAGAG	0.111
ACCGCTAA	0.0585
CATTATCA	0.137
AGACAATA	0.213
AGCGAAAG	0.0106
AATTTAAT	0.282
GCGAGAGC	0.0503
TCATAGAA	0.229

Sequence	PBM E-score
GACGATAC	0.0236
GAAAGTAC	0.113
AGAGCCCC	-0.205
ACACTTGA	-0.173
CCACATAC	0.0455
GACCAACA	0.164
ATAGAAGA	-0.108
GCATCATA	0.339
ACATAGGT	0.108
ATCACGCC	0.0769
CCTACGCC	-0.167
AGAGCGAG	-0.126
ACACACCA	0.0971
GTAGACGA	0.0284
CCGTCTCG	0.0848
GTGCCGGA	-0.104
CTAGAGGC	-0.149
ATCACGGC	0.141
GTTCCTGA	-0.185
AGTGACGC	0.438
AATATGAT	0.233
CGCTTTTA	0.114
ACGATCGA	0.0465
AGTGCAGC	-0.108
GCTTAACC	-0.143

Sequence	PBM E-score
AACCACTA	-0.0168
GGACGGGA	-0.285
GAGTAAGA	0.153
CGAAACAC	0.125
GACTTCCC	-0.16
GCTCGACA	-0.248
CAGGCCTC	-0.418
CACGATTC	0.0982
AACAAGGC	-0.0127
CGCATAAC	0.134
ATTACGTC	0.485
AACTTGCT	-0.117
TATTCCGA	0.0724
ACCTGGAG	-0.166
TACTGCAA	-0.0176
TACAGTGA	0.141
AGCAAGGC	-0.0509
CCAATCGC	-0.0449
TCCAGCCA	-0.172
ACCCTTGG	-0.267
TGCAGGCA	-0.107
AGATGCTA	0.00857
ACACGTGG	0.0374
AAATGCAT	0.0407
ATGACAGG	0.0675

Sequence	PBM E-score
CTGTCGGA	-0.175
GGCATAAC	0.102
AACATGGG	-0.0504
ACAAGTCA	-0.037
CCGATATC	-0.149
AAGGGCTG	-0.306
GAAGATGC	-0.139
ACGCGGTG	-0.101
AATACAAA	0.287
CAGACAGG	-0.15
GGCGATCA	-0.0417
AGATTGGA	-0.0529
CCTATACC	-0.169
CGCCAAAC	-0.0827
GAACCTAA	-0.124
GGAGGGAA	-0.42
CATGAGCC	-0.159
AATCACTA	0.159
ATTGGGGA	-0.109
CGCAGTAG	-0.101
AGCCTTCA	0.0604
CTAGTGAC	0.234
TGCAGCCA	-0.11
CTCGCCCA	-0.136
TAAAGCAA	0.0677

Sequence	PBM E-score
CATTGCAA	-0.126
AATGCCGT	0.418
AGGACGAA	-0.0114
AACACCTC	-0.0672
CGCATCGA	0.108
TATCACCA	0.123
AGCCAGCT	-0.0742
GGTACAAA	0.00094
CTCGATGA	0.112
AATTGCCA	0.0303
ATTGTCCG	-0.00764
CCATAGCG	-0.0739
CCCCCGAA	-0.245
CATCCTAC	-0.0877
AGCCACTG	-0.0843
GAATCTAA	0.097
AGCTGGCC	0.0131
GATAGGGC	-0.242
GCGATTTA	0.0726
AAAGGAAT	0.0293
GAGCCTCA	0.00319
GGTTGCAC	-0.136
GCCGGAAA	-0.138
TAGTCACA	0.0725
CTAAGGAG	-0.206

Sequence	PBM E-score
CCCGTATC	-0.233
AAAATTGG	0.106
GGGCTCGA	-0.112
CCGTTGTC	0.0455
ACGGCTAT	0.115
CACGGCGC	0.357
CAGTAGAC	0.0414
GAATTAAC	0.128
GGTGGTTA	-0.00265
CTGGTTGC	-0.0494
AACACAGA	-0.00148
GGATAATA	0.148
AAAGATTC	0.236
AAGGTGAC	0.243
GTCGCAAC	-0.0642
CTAACATA	0.176
GGCTTCGA	-0.00844
CACAAAGA	0.0847
ACGTAGAT	0.251
